Data taken from paper PMC4336329 (PLoS ONE, 2015).
The campaign covered roughly 310,000 compounds. About 2,200 (0.71%) showed an effect of 50% or more. The effect is printed as a negative number. The list shows a part of the results.

target: human ether-à-go-go-related gene (hERG) potassium channel (human, UniProt Q12809); assay: primary screen, population patch clamp on CHO cells stably expressing hERG
Sequence (Q12809 whole entry, looked up): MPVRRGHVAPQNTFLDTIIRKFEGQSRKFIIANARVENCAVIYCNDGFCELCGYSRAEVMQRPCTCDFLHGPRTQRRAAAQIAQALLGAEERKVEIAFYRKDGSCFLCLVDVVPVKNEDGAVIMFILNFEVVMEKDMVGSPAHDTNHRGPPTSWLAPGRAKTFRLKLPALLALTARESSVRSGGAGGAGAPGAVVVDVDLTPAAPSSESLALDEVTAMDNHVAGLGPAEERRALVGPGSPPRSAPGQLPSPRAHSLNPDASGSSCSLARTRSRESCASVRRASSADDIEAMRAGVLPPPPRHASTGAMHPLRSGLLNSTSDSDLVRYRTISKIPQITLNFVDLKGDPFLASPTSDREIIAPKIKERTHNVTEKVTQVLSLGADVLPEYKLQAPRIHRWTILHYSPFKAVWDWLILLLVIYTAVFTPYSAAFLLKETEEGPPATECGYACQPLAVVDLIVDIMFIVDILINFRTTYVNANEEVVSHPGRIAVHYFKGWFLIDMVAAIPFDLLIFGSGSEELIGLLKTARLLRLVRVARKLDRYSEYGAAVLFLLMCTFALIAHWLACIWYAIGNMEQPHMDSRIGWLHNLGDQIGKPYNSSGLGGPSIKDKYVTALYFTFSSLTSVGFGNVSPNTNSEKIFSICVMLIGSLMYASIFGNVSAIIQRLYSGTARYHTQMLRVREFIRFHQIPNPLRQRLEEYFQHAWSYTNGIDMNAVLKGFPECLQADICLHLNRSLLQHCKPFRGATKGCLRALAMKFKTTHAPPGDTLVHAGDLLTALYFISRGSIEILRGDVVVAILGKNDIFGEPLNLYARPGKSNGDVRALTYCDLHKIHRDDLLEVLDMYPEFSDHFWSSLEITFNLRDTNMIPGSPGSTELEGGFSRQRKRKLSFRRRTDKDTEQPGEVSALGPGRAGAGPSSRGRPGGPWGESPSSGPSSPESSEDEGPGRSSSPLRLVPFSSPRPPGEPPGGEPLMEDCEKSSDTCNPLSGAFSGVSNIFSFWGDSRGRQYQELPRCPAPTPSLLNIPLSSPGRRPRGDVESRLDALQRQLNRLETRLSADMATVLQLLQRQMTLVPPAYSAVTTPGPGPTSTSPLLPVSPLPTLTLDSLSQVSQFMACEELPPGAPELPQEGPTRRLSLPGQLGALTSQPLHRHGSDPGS

Row | SMILES | hERG current change (%, negative = inhibition) at 1uM [%]
1 | CCOc1ccc2nnnn2n1 | 10.4
2 | COC(=O)C1=C(c2cccc(C#N)c2)C[C@@H]2CC[C@H]1N2C(=O)NCCOc1ccccc1 | 12.1
3 | O=C(Nc1ccc(C(=O)O)cc1)/C(=C\C=C\c1ccccc1)NC(=O)c1cccc(Br)c1 | 6.3
4 | CC(=O)Nc1ccc(S(=O)(=O)NNC(=O)c2cccc3ccccc23)cc1 | 17.2
5 | O=C(C1COc2ccccc2O1)N1CCN(S(=O)(=O)c2ccccc2)CC1 (stereo not shown) | -2.39
6 | C/C(=N\Nc1nc2ccccc2[nH]1)c1cccs1 | -0.576
7 | CN(C)CCn1c2c(c(SCC(=O)Nc3nccs3)nc1=O)CCCC2 | 1.98
8 | COc1ccccc1NC(=O)C(CC=C(Cl)Cl)C(C)=O (stereo not shown) | 17.7
9 | O=C(CSc1nnc(NC2CCCCC2)s1)N1CCOCC1 | 4.47
10 | O=C(Nc1ccccc1)/C(=C/c1ccc2c(c1)OCO2)NC(=O)c1ccco1 | 11.2
11 | CS(=O)(=O)c1ccc(Cl)c(NC(=O)COC(=O)/C=C/c2cnc3ccccc3n2)c1 | 14.6
12 | Cc1ccc(CNc2nc(-c3cccs3)nc3ccccc23)cc1 | 9.39
13 | O=S(=O)(NCC(c1cccnc1)N1CCc2ccccc2C1)c1ccccc1 (stereo not shown) | 10.3
14 | COc1ccc(-c2nn(C)c3sc(C(=O)N4CCOCC4)cc23)cc1OC | -5.83
15 | COc1ccc(Cl)cc1NC(=O)C1CCN(C(=O)Nc2ccccc2)CC1 | 11.2
16 | C=CCn1c(SCC(=O)N2c3ccccc3Sc3ccccc32)nnc1-c1ccco1 | 13.3
17 | COc1ccc(-c2cc(-c3ccccc3)c(C#N)c(S(C)=O)n2)cc1 (stereo not shown) | 11.6
18 | Cc1cc(OC(C)C(=O)NC(Cc2c[nH]c3ccc(O)cc23)C(=O)O)c2c(C)c(C)c(=O)oc2c1 (stereo not shown) | -9.01
19 | O=C(c1cc(Cl)ccc1OCc1ccccc1)N1CCOCC1 | 13.6
20 | O=C(NCCO)/C(=C\c1ccc([N+](=O)[O-])o1)NC(=O)c1ccccc1 | 4.89
21 | CN1CCN(CC#CCC2(O)c3ccccc3-c3ccccc32)CC1 | 16.1
22 | Cc1ccc(CNS(=O)(=O)c2cn(C)cn2)cc1 | -12.6
23 | Cc1cc(C(F)F)n2nc(C(=O)Nc3ccccc3F)nc2n1 | 14.7
24 | CCOC(=O)c1cc(C(=O)OCC)cc(-n2c(C)cc(C(=O)CN3CCOCC3)c2C)c1 | -7.96
25 | C=CCN1C(=O)C2(OCCCO2)c2cc(C)ccc21 | 11.5
26 | CCCCCn1c(N)c(-c2nc3ccccc3o2)c2c([N+](=O)[O-])nn(C)c(=O)c21 | 10
27 | Cc1[nH]c2ccccc2c1C(=O)COC(=O)CCS(=O)(=O)c1ccccc1Cl | 3.04
28 | O=C(NNC(=S)Nc1ccc(Cl)c(Cl)c1)c1ccccn1 | 12.1

Row | SMILES | hERG current change (%, negative = inhibition) at 1uM [%]
29 | CCC(=O)c1cn(CC(=O)Nc2ccc(OC)cc2)c2ccccc12 | 7.4
30 | C=CCNS(=O)(=O)c1cc2c3c(c1)CCN3C(=O)CC2 | 22.7
31 | COC(=O)c1cn(NC(=O)C2CCC(C)CC2)c(=O)c2ccccc12 (stereo not shown) | 12.5
32 | Cc1ccc(N2CCN(C(=O)CNS(=O)(=O)c3ccc(Br)s3)CC2C)cc1 (stereo not shown) | -11
33 | CN1c2ccccc2N(C)C1c1ccc2c(c1)OCO2 | 20.3
34 | O=C(O)CC1(CC(=O)NCc2ccc(C(F)(F)F)cc2)CCCCC1 | 0.881
35 | O=C(CN1C(=O)NC2(CCCCC2)C1=O)Nc1cccc(S(=O)(=O)N2CCOCC2)c1 | 9.68
36 | Cc1cc(C)n2nc(-c3cnn(C)c3C(F)(F)F)c(Cl)c2n1 | -6.07
37 | COc1ccc(C(=O)C[n+]2ccccc2C)cc1.[Br-] | 11.7
38 | Cc1ccc(SCC(=O)NNC(=O)c2ccccc2)cc1C | 14
39 | COc1ccc(NC(=O)CSc2nc3[nH]c(=O)cc(O)c3s2)c(OC)c1 | 18.5
40 | CC(C)(C)NC(=O)CN(Cc1cccs1)C(=O)C1COc2ccccc2O1 (stereo not shown) | 9.73
41 | CCN(CC(=O)Nc1c(F)cccc1F)C(=O)c1cnc(C)cn1 | 7.97
42 | CCCN(CCC)C(=S)Nc1cc(C(=O)OC)ccc1C(=O)OC | -0.668
43 | CCOc1cc(/C=C(\C#N)C(=O)NCC2CCCO2)ccc1O (stereo not shown) | -1.27
44 | O=c1c(-c2ccc(Br)cc2)[n+]([O-])c2ccccc2n1OCc1ccccn1 | 7.05
45 | CCCCn1c(O)c(C(C)=NCCCN(C)C)c(=O)[nH]c1=O | 13.9
46 | COc1ccccc1-c1nnc2sc(COc3ccc(Cl)cc3Cl)nn12 | 0.358
47 | O=C(COc1ccc(F)cc1)Nc1c(C(=O)N2CCC(N3CCCCC3)CC2)oc2ccccc12 | -33.8
48 | COCCNC(=O)c1ccc(NS(=O)(=O)c2ccc3[nH]c(=O)[nH]c3c2)cc1 | 14.8
49 | COc1ccccc1CN1C[C@@H]2C[C@@H](c3cccc(C)n3)N3CCC[C@@]23C1=O | 11.5
50 | Cc1ccc(C(=O)NC2CCN(S(=O)(=O)c3ccccc3)CC2)cc1 | -0.148
51 | CCC(C)(C(=O)NC1CCCCC1)N(C(=O)c1cnccn1)c1c(C)n(C)n(-c2ccccc2)c1=O (stereo not shown) | 11
52 | CC(C)N(C1=CC(=O)OC12CCCCC2)C(C)C | 7.72
53 | O=C(Nc1cccc(-c2nc3ccccc3c(=O)o2)c1)c1ccccc1 | 15.6
54 | CC1=C(C(=O)OC(C)C)[C@]2(C(=O)N(CC(N)=O)c3ccccc32)C(C#N)=C(N)O1 | 13.8
55 | CCNc1c([N+](=O)[O-])c(=O)n(CC)c2ccccc12 | 9.75
